{"source": "PubChem BioAssay AID602179", "about": "(National Center for Advancing Translational Sciences (NCATS), 2012)", "note": "Values joined by “and” are separate entries in the source; they are usually repeats but may differ in a detail not shown here. Equal entries are not always repeated. The whole screen tested about 390,000 compounds, of which about 360 (0.092%) were called active. The shares of active, inactive and inconclusive entries below differ from those in the screen. The call rests on the fitted dose curve; in most records, active means well fitted inhibition curve with a large enough effect; inconclusive means small, poorly fitted or top-dose-only effect; inactive means no such curve, though single readings can be large or run the other way. Where the call is inconclusive, the potency comes from a doubtful curve fit. On the % scale 0 is the no-effect control and ±100 the full control effect; potency means the concentration at half of the fitted maximal effect; tags describe the fitted curve by direction and shape.", "data": [{"target": "Isocitrate dehydrogenase [NADP] cytoplasmic (Homo sapiens) (UniProt O75874)", "assay": "qHTS for Inhibitors of mutant isocitrate dehydrogenase 1 (IDH1): qHTS; further: nearly all actives have a fitted effect of over 65% in size", "details": "IDH1-R132H enzyme, NADPH consumption, diaphorase/resazurin fluorescence; series mostly up to 76.6 µM; activity change, negative = inhibition: at the top concentration", "summary_of_the_method": "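IDH1-R132H (0.5 ug/mL dispensed) in pH 7.5 Tris buffer was preincubated 30 min with compound, then given a substrate mix of 0.016 mM NADPH and 2 mM alpha-KG for 80 min at room temperature; remaining NADPH was read by diaphorase/resazurin fluorescence.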", "values": [{"smiles": "COc1ccc(/C=C/C(=O)Nc2cc(C(F)(F)F)ccc2Cl)cc1OC", "activity change, negative = inhibition": "inactive: 8.26%"}, {"smiles": "CCCN(CCC)S(=O)(=O)c1ccc(N2CCCC2=O)c([N+](=O)[O-])c1", "activity change, negative = inhibition": "inactive: 2.46%"}, {"smiles": "Cc1nc(C)c(C(=O)N(c2ccc(C)c(C)c2)C(C(=O)NCc2ccco2)c2ccccc2)s1", "note": "(stereo not given)", "Potency": "inconclusive: 14.7 µM [inhibitor, full curve]"}, {"smiles": "C=CCc1ccccc1OCCSc1nc(-c2ccc(C(C)(C)C)cc2)nc2cc(=O)[nH]n12", "Potency": "inconclusive: 44.7 µM [inhibitor, partial curve, poor fit]"}, {"smiles": "CC(=O)N(C(C)=O)N1C(=O)/C(=C/c2ccc(Cl)cc2)SC1=S", "Potency": "inconclusive: 52.1 µM [inhibitor, partial curve]"}, {"smiles": "O=C(Nc1nnc(-c2ccc(F)cc2)o1)c1cc(Cl)sc1Cl", "activity change, negative = inhibition": "inactive: 3.06%"}, {"smiles": "COc1ccc(OCCSc2nc3ccccc3c(=O)[nH]2)cc1", "activity change, negative = inhibition": "inactive: -3.57%"}, {"smiles": "CCCCC(=O)NC(c1ccc(OC)c(OC)c1)c1ccc2cccnc2c1O", "note": "(stereo not given)", "Potency": "inconclusive: 16.5 µM [inhibitor, partial curve]"}, {"smiles": "COCC(=O)Oc1c(Sc2ccc(C)cc2)c(C)nn1C(C)(C)C", "Potency": "inconclusive: 50.1 µM [inhibitor, single point]"}, {"smiles": "CCCn1c(SCN2C(=O)c3ccccc3C2=O)nc2cc(Cl)ccc2c1=O", "activity change, negative = inhibition": "inactive: 2.18%"}, {"smiles": "Cc1cc(NS(=O)(=O)c2ccc(NC(=O)c3cc(-c4ccccc4Cl)nc4ccccc34)cc2)no1", "Potency": "inconclusive: 50.1 µM [inhibitor, single point]"}, {"smiles": "Cc1cc(N2CCCC(C(=O)Nc3ccc4c(c3)CCC4)C2)n2ncnc2n1", "note": "(stereo not given)", "activity change, negative = inhibition": "inactive: 4.24%"}, {"smiles": "CCOC(=O)N1CC=C2C(C#N)=C(N)C(C#N)(C#N)[C@H](c3ccc(OC(C)C)c(OCC)c3)[C@H]2C1", "Potency": "inconclusive: 32.9 µM [inhibitor, partial curve]"}, {"smiles": "CCOc1ccc(Cl)cc1C(c1c(C)[nH][nH]c1=O)c1c(C)[nH][nH]c1=O", "activity change, negative = inhibition": "inactive: -0.723%"}, {"smiles": "CC1=C(C(=O)OCc2ccccc2)C(c2cccc3ccccc23)NC(=O)N1CCCC(=O)O", "note": "(stereo not given)", "activity change, negative = inhibition": "inactive: -11.9%"}, {"smiles": "CCOC(=O)c1c(C)oc2c1c(C(c1cccnc1)N1CCOCC1)c(O)c1ccccc12", "note": "(stereo not given)", "Potency": "inconclusive: 41.4 µM [inhibitor, partial curve]"}, {"smiles": "Cc1noc(C)c1S(=O)(=O)N(C)C[C@H]1Oc2c(NC(=O)Nc3ccc(C(F)(F)F)cc3)cccc2C(=O)N([C@H](C)CO)C[C@@H]1C", "Potency": "inconclusive: 44.7 µM [inhibitor, partial curve, poor fit]"}, {"smiles": "CC(C)c1ccc(NS(=O)(=O)c2ccc3nc(-c4ccccc4)[nH]c3c2)cc1", "Potency": "inconclusive: 50.1 µM [inhibitor, partial curve, poor fit]"}, {"smiles": "Cc1cccc(/C=N/n2c(-c3cc(-c4ccccc4)n[nH]3)n[nH]c2=S)c1", "Potency": "inconclusive: 58.5 µM [inhibitor, partial curve, poor fit]"}, {"smiles": "COc1ccc(C)cc1Nc1n[n+](-c2ccccc2)c(-c2ccc(N(C)C)cc2)s1", "Potency": "inconclusive: 44.7 µM [inhibitor, single point]"}, {"smiles": "COc1ccc(-c2csc3nc(C)nc(N4CCCCC4)c23)cc1OC", "Potency": "inconclusive: 44.7 µM [inhibitor, partial curve]"}, {"smiles": "Fc1ccc(/C=N/n2c(C3CCCCC3)n[nH]c2=S)cc1", "activity change, negative = inhibition": "inactive: -1.45%"}, {"smiles": "CCOc1ccc(CCN2C(=O)C(=O)N([C@@H](Cc3ccc(O)cc3)CN3CCC[C@@H]3CN3C(=O)C(=O)NC[C@@H]3Cc3ccccc3)C[C@@H]2Cc2ccccc2)cc1", "Potency": "active: 31.6 µM"}, {"smiles": "COc1ccc(Nc2c3c(nc4ccc(NC(=O)/C=C/c5cc(OC)c(OC)c(OC)c5)cc24)CCCC3)cc1OC", "Potency": "inconclusive: 11.2 µM [inhibitor, full curve]"}, {"smiles": "Cc1oc(C)c2c(=O)ccc3c(c12)OC(N)=C(C#N)C3c1ccccc1Cl", "note": "(stereo not given)", "Potency": "inconclusive: 58.5 µM [inhibitor, single point]"}, {"smiles": "CCCN1C(=O)C(NC(=O)c2ccccc2OC)(C(F)(F)F)C(C(=O)OC)=C1C", "note": "(stereo not given)", "Potency": "inconclusive: 25.1 µM [inhibitor, single point]"}, {"smiles": "COc1ccc(C2c3c(-c4ccccc4O)n[nH]c3C(=O)N2Cc2ccco2)cc1", "note": "(stereo not given)", "Potency": "inconclusive: 15.8 µM [inhibitor, full curve] and inconclusive: 58.5 µM [inhibitor, single point]"}, {"smiles": "COc1cccc(N(C(=O)c2csnn2)C(C(=O)NC2CCCC2)c2ccccc2)c1", "note": "(stereo not given)", "Potency": "inconclusive: 44.7 µM [inhibitor, single point]"}, {"smiles": "O=C(Nc1ccccc1Oc1ccccc1)c1cc([N+](=O)[O-])ccc1Cl", "activity change, negative = inhibition": "inactive: 7.39%"}, {"smiles": "COC(=O)c1c(C)oc(C)c1S(=O)(=O)N(C)C1CCCCC1", "activity change, negative = inhibition": "inactive: 0.115%"}, {"smiles": "Nc1[nH]c(=S)nc2nc(-c3ccccc3)c(-c3ccccc3)nc12", "Potency": "inconclusive: 50.1 µM [inhibitor, single point]"}, {"smiles": "CCOC(=O)c1[nH]c(C)c(CCC(=O)Nc2c(C)cc(C)cc2C)c1C", "activity change, negative = inhibition": "inactive: 18.5%"}, {"smiles": "COc1cc(C2c3c(oc4cc(C)c(C)cc4c3=O)C(=O)N2CCCN2CCOCC2)ccc1O", "note": "(stereo not given)", "Potency": "inconclusive: 50.1 µM [inhibitor, single point]"}, {"smiles": "Cc1cccc(NCCNc2cccc(C)c2)c1", "activity change, negative = inhibition": "inactive: 5.04%"}, {"smiles": "CCCc1[nH]nc2c1C(C1CC=CCC1)C(C#N)=C(N)O2", "note": "(stereo not given)", "Potency": "inconclusive: 58.5 µM [inhibitor, single point]"}, {"smiles": "Cc1ccc(C(=O)c2cn(Cc3ccccc3C)c3nc(C)ccc3c2=O)cc1", "Potency": "inconclusive: 50.1 µM [inhibitor, single point]"}, {"smiles": "CC(=O)c1c(C)n(-c2ccc(Br)cc2)c2ccc(O)cc12", "activity change, negative = inhibition": "inactive: -2.38%"}, {"smiles": "CC(=O)c1cc2c(cc1NC(=O)Cn1nc(-c3ccc(C)cc3)ccc1=O)OCO2", "activity change, negative = inhibition": "inactive: 5.5%"}, {"smiles": "COc1ccc(C(=O)N2CCC(C(=O)Nc3ccc(OC)cc3OC)CC2)cc1", "Potency": "inconclusive: 63.1 µM [inhibitor, single point]"}, {"smiles": "NC(=O)Cc1nc(-c2ccc([N+](=O)[O-])cc2)cs1", "activity change, negative = inhibition": "inactive: 0%"}, {"smiles": "CC1CCN(S(=O)(=O)c2ccc3c(c2)c(=O)c(C(=O)NCc2ccco2)cn3C)CC1", "Potency": "inconclusive: 44.7 µM [inhibitor, single point]"}, {"smiles": "Cc1ccc(C(=O)Nc2nc3ccccc3c(=O)s2)cc1", "activity change, negative = inhibition": "inactive: 4.34%"}, {"smiles": "CCN1C(=O)/C(=C\\c2ccc(-c3ccc([N+](=O)[O-])cc3OC)o2)SC1=Nc1cccc(C(=O)O)c1", "Potency": "inconclusive: 58.5 µM [inhibitor, single point]"}, {"smiles": "CCOc1ccccc1CNc1ncnc2onc(-c3ccc(F)cc3)c12", "Potency": "inconclusive: 50.1 µM [inhibitor, single point]"}, {"smiles": "CCOc1ccc(N2C(=O)c3[nH]nc(-c4ccccc4)c3C2c2ccc(O)c(OC)c2)cc1", "note": "(stereo not given)", "Potency": "inconclusive: 39.8 µM [inhibitor, partial curve]"}, {"smiles": "O=C(Nc1ccc(F)cc1)C1CCN(c2nc3ccccc3nc2C(F)(F)F)CC1", "activity change, negative = inhibition": "inactive: 0%"}, {"smiles": "Cc1ccc(CSC2=Nc3ccccc3C3=NC(CCC(=O)NCCc4ccccc4)C(=O)N23)cc1", "note": "(stereo not given)", "Potency": "inconclusive: 39.8 µM [inhibitor, partial curve]"}, {"smiles": "COC(=O)c1ccc(C(=O)OC)c(-n2c(=O)c3ccccc3c3ccccc3c2=O)c1", "Potency": "inconclusive: 58.5 µM [inhibitor, partial curve, poor fit]"}, {"smiles": "Nc1c(C(=O)NCc2ccco2)sc2nc(N3CCOCC3)c3c(c12)CCCC3", "Potency": "inconclusive: 14.7 µM [inhibitor, full curve, poor fit]"}, {"smiles": "C[C@H]1CN=C(N(C)C)N1CC1CCCCC1", "Potency": "inconclusive: 70.8 µM [inhibitor, single point]"}, {"smiles": "Cc1ccc(Cn2c(C)c(CNC(C)c3ccccc3)c(C(=O)O)c2C)cc1", "note": "(stereo not given)", "Potency": "inconclusive: 28.2 µM [inhibitor, single point]"}, {"smiles": "O=C(C1CCN(S(=O)(=O)c2cccnc2)CC1)N1CCN(c2ccc(Cl)cc2)CC1", "activity change, negative = inhibition": "inactive: -1.66%"}, {"smiles": "COCC(=O)n1nc(-c2ccc(C)cc2)nc1NCc1ccc(F)cc1", "activity change, negative = inhibition": "inactive: 3.24%"}, {"smiles": "COC(=O)C(Cc1c[nH]c2ccccc12)NC(=O)CNC(C)=O", "note": "(stereo not given)", "activity change, negative = inhibition": "inactive: -0.0995%"}, {"smiles": "CCOC(=O)c1cc(-c2ccncc2)nc2c1c(C)nn2-c1ccccn1", "Potency": "inconclusive: 36.9 µM [inhibitor, partial curve]"}, {"smiles": "CCOC(=O)C1Nc2ccc(C(F)(F)F)cc2C2C=CCC12", "note": "(stereo not given)", "Potency": "inconclusive: 50.1 µM [inhibitor, single point]"}, {"smiles": "C=CCn1c(SCc2nc3sc(C(=O)O)c(C)c3c(=O)[nH]2)nnc1-c1ccc(C(C)(C)C)cc1", "Potency": "inconclusive: 52.1 µM [inhibitor, partial curve]"}, {"smiles": "Cc1ccc([C@H]2C(C(=O)O)=CC[C@@H](c3ccc(C)cc3)N2S(=O)(=O)c2ccc(C)cc2)cc1", "Potency": "inconclusive: 50.1 µM [inhibitor, single point]"}, {"smiles": "C=CCNC(=O)/C(C#N)=C/c1ccc(OS(=O)(=O)c2ccc(C)cc2)c(OC)c1", "Potency": "inconclusive: 58.5 µM [inhibitor, single point]"}, {"smiles": "O=C(COC(=O)c1ccc2ncsc2c1)Nc1ncc(Cl)cc1Cl", "Potency": "inconclusive: 58.5 µM [inhibitor, single point]"}, {"smiles": "O=C(O)c1ccc(N2Cc3ccccc3C2)cc1O", "activity change, negative = inhibition": "inactive: 3.21%"}, {"smiles": "Cc1ccc2nc(NC(=O)CSc3nccn3Cc3ccc(Cl)cc3)sc2c1", "Potency": "inconclusive: 50.1 µM [inhibitor, single point]"}, {"smiles": "NC(=O)c1ccccc1NCC(=O)c1ccc(F)cc1", "Potency": "inconclusive: 58.5 µM [inhibitor, single point]"}, {"smiles": "Cc1ccc(C(C)(C)C)cc1S(=O)(=O)N1CCC(C(=O)N2CCN(c3ccc(O)cc3)CC2)CC1", "activity change, negative = inhibition": "inactive: 7.5%"}, {"smiles": "CC1=C(C)CC2C(C1)C(=O)c1ccc(Br)cc1S2(=O)=O", "note": "(stereo not given)", "Potency": "inconclusive: 70.8 µM [inhibitor, single point]"}]}]}
